This assay deals with Plasmodium falciparum. Nature of the assay: Primary screen in NF54 nanoGlo assay, in single point, at 2uM, 72h; a lower Z score goes with more inhibition. In kind it is functional, Erythrocyte. The following applies: timepoint 72 hour.

Structures are written as SMILES. Values joined by “and” are separate entries in the source; they are usually repeats but may differ in a detail not shown here. Equal values may be shown once. Hit rate of the full screen: of about 150,000 compounds, about 540 (0.36%) showed an effect of 50% or more. This is one part of the list.

In the case of `Brc1cncc([C@@H]2CCCN2c2nccn3nnnc23)c1`, the “% Inhibition” value was -16% and the Z score amounted to 1.61.
The like results for `COc1ccc([C@@H]2CN(Cc3ccc(F)cc3)[C@@H]3C4CCN(CC4)[C@@H]32)cc1` were, in that order, 2% and -0.45.
The like results for `O=S(=O)(Nc1ccc2c(c1)CNCC2)c1cccc(Cl)c1` were, in that order, -1% and 0.16.
For `CCc1nc(C)c(CN2CCC[C@H](C(=O)c3ccc(Cl)cc3)C2)[nH]1`, in that order: -2% and 0.37.
With `CC1CN(C(C)C)CC1NC(C)C(O)c1ccc(F)cc1` (configuration not stated), the “% Inhibition” value was -4% and the Z score worked out at 0.79.
`CC(C)N1C(=O)N=C(O)C2(Cc3ccccc3N3CCN(c4ccccc4)CC32)C1=O` (configuration not stated): the “% Inhibition” value amounted to 9% and the Z score was -1.23.
As for `CN1CC2(CCN(C(=O)c3cnc(C4CC4)nc3)C2)C1`, the “% Inhibition” value is reported as -9% and the Z score is reported as 1.7.
With `O=C(NCC1CCN(C(=O)Oc2ccccc2)CC1)c1ccsc1`, the “% Inhibition” value was -5% and the Z score stood at 0.75.
For `O=c1oc2ccccc2n1CCNc1ccccc1Oc1ncc(Cl)cc1Cl`, in that order: -6% and 0.91.
For the compound `O=C(Nc1ccccc1)N1C[C@@H]2C[C@H](C1)c1c(-c3cccnc3)ccc(=O)n1C2`, the “% Inhibition” value is -7% and the Z score worked out at 1.08.
The like results for `Cc1cccn2c(CN3CCOCC34CCC4)cnc12` were, in that order, 4% and -0.39.
Regarding `Cn1c(N2CCC[C@H]2c2cccnc2)nc2ccccc21`, the “% Inhibition” value is on record as -3% and the Z score stood at 0.52.
For `O=C(C1CCCCC1)N1C[C@@H]2C[C@H](C1)c1c(-c3ccc(Cl)cc3)ccc(=O)n1C2`, the “% Inhibition” value was found to be 1% and the Z score is -0.14.
Turning to `CNc1nc(CN2C[C@@H]3[C@@H]4CC[C@@H](C4)[C@@H]3C2)cs1`, the “% Inhibition” value is given as -10% and the Z score is given as 1.22.
For `O=C1CCCN1C(=O)c1cncc(Br)c1`, in that order: -8% and 1.04.
For `COCCCNC1CCCCC1C(C)(C)C` (configuration not stated), in that order: -15% and 1.9.
For `c1cncc(-c2noc(CN3CCC4CCCCC4C3)n2)c1` (configuration not stated), in that order: -14% and 1.24.
As for `CO[C@H]1[C@@H]2CC[C@H]1CN(Cc1ccc(N(C)C)nc1)C2`, the “% Inhibition” value was 0% and the Z score is listed as 0.04.
Take `O=C(Cc1cccc(F)c1)N1CCCCC[C@@H]1CN1CCCC1`: the “% Inhibition” value is on record as 2% and the Z score is -0.34.
`O=c1oc2c(Cl)cc(Br)cc2n1Cc1noc(-c2ccoc2)n1`: the “% Inhibition” value was determined as 0% and the Z score is -0.07.
Consider `COc1ccc(CCNC2CCC(C)C2)cc1OC` (configuration not stated), for which the “% Inhibition” value was 6% and the Z score is given as -0.89.
The like results for `COc1ccc2c(c1)[C@@]1(CCN(S(=O)(=O)c3cc(F)cc(F)c3)C1)C(=O)N2C` were, in that order, -18% and 2.39.
The like results for `C[C@H](NCCc1c[nH]c2ccccc12)c1cccnc1` were, in that order, 7% and -0.95.
`CCC(=O)N1N=C(c2c(O)n(C)c(=O)n(C)c2=O)C[C@H]1c1ccc(OC)c(O)c1`: the “% Inhibition” value was -5% and the Z score is listed as 1.
Regarding `CCCN1CCN(c2cnn3cnnc3c2)CC1`, the “% Inhibition” value was -3% and the Z score is reported as 0.34.
As for `Cc1ccc(OCc2c(C(=O)NCc3ccccc3)c(=O)cc(C)n2CCN2CCOCC2)cc1`, the “% Inhibition” value is -6% and the Z score came out at 0.94.
The like results for `Cc1ccc(C(=O)NCc2nc(=O)o[nH]2)c(Br)c1` were, in that order, -9% and 0.9.
For `CC(C)Cn1[nH]c(CC(=O)N2C3CCC2c2ccccc23)cc1=O`, in that order: 10% and -1.35.
For `C[C@]12NC(=O)CN1CCc1ccccc12`, in that order: 0% and -0.02.
Take `Cc1ccccc1C[C@H](C)N(C)C(=O)CN1CCCS1(=O)=O`: the “% Inhibition” value is reported as -5% and the Z score amounted to 0.78.
With `Cc1nc(-c2ccncc2)nc2c1CC(=O)N2CCN1CCOCC1`, the “% Inhibition” value is -13% and the Z score is given as 1.83.
With `COc1c(C)ncnc1N1CCC[C@H]1c1cccnc1`, the “% Inhibition” value is -6% and the Z score is reported as 1.2.
The like results for `O=C(c1ccc(Cl)cc1)[C@H]1CCCN(Cc2cccc3c2OCO3)C1` were, in that order, -15% and 2.28.
For `COC[C@H](NCCc1c[nH]c2ccc(F)cc12)C1CC1`, in that order: 5% and -0.52.
For `CCCCC(=O)N1CCN(Cc2ccncc2)[C@@H]2CS(=O)(=O)C[C@@H]21`, in that order: 8% and -1.6.
In the case of `CN1C2CCC1CN(c1ccc(C#N)cn1)CC2` (configuration not stated), the “% Inhibition” value is reported as -3% and the Z score is reported as 0.33.
The like results for `O=C(c1cnns1)N1CCC[C@H](c2n[nH]c(=O)o2)C1` were, in that order, 25% and -2.86.
Take `CCc1c(C(=O)N[C@H]2CCCc3ccccc32)c(=O)cc(C)n1CCN1CCCCC1`: the “% Inhibition” value is given as -8% and the Z score stood at 1.12.
The like results for `O=C(NC[C@H]1C[C@@H]2CCN1C[C@@H]2CN1CCOCC1)Nc1ccccc1` were, in that order, -1% and 0.21.
For `CN1CC[C@@H]2CN(S(=O)(=O)c3ccc(-c4ccccn4)s3)C[C@@H]21`, in that order: 6% and -0.75.
For `Cc1occc1C(=O)Nc1ccc2c(c1)CNCC2`, in that order: -4% and 0.49.
As for `c1cncc(-c2noc(CN3CCOC4CCCCC43)n2)c1` (configuration not stated), the “% Inhibition” value is recorded as -8% and the Z score was determined as 1.45.
The like results for `COc1ccccc1Cn1cc(C(=O)NCCC(C)C)c(=O)c(C(=O)NCc2ccccn2)c1` were, in that order, 2% and -0.29.
The like results for `C[C@@H](Cn1cncn1)NCc1ccc2sccc2c1` were, in that order, -5% and 0.97.
For the compound `COc1ccc(F)c(-c2ccc3c(c2)CNCC3)c1`, the “% Inhibition” value is reported as 1% and the Z score is on record as -0.24.
For `COc1cccc(C(=O)N2C3CCC2c2cncnc2C3)c1` (configuration not stated), in that order: -13% and 2.15.
The like results for `Cc1c(C)[n+]([O-])c([C@@H](C(C)C)C2C(=O)N(C)C(=O)N(C)C2=O)n1Cc1ccccc1` were, in that order, 3% and -0.51.
The like results for `Cc1ncccc1CN1CCCC2(C1)OCCO2` were, in that order, -9% and 1.08.
In the case of `COc1ccc(N2C(=O)NC(=O)C3(Cc4cccc(F)c4N4CC(C)CC(C)C43)C2=O)cc1` (configuration not stated), the “% Inhibition” value was -2% and the Z score was 0.34.
The like results for `CC[C@]1(c2ccccc2)C(=O)NC(=O)N(CN2CCOCC2)C1=O` were, in that order, 7% and -1.03.
Take `COc1ccc(CCN2C(=O)NC(=O)C3(Cc4ccccc4N4CCOCC43)C2=O)cc1OC` (configuration not stated): where the note is “2 µM”, the “% Inhibition” value was -10% and -8%; the Z score is 1.62 and 0.69.
As to `Cc1nc2ccc(N3CCC[C@H]3c3cccnc3)nn2n1`, the “% Inhibition” value is on record as -4% and the Z score worked out at 0.62.
The like results for `N#Cc1cccc(CNCCc2ccc3c(c2)OCCO3)c1` were, in that order, 10% and -0.95.
For `CC(=O)c1ccc(CN2C3CCC2CC3)cc1`, in that order: -16% and 1.79.
The like results for `Cc1ccccc1CC(=O)N1CC[C@H]2C(=O)N(Cc3ccc(F)cc3)CCN2CC1` were, in that order, -9% and 1.21.
Turning to `CCCn1cnnc1CNS(=O)(=O)c1ccc2[nH]c(=O)oc2c1`, the “% Inhibition” value is -5% and the Z score was 0.67.
The like results for `CCOc1ccc(-n2c(=O)[nH]c(O)c([C@@H]3c4ccccc4CCN3C(C)=O)c2=O)cc1` were, in that order, -5% and 0.64.
The like results for `Nc1ccnc(N2C[C@@H](c3cc(F)cc(F)c3)[C@@H]3[C@H]2C2CCN3CC2)n1` were, in that order, -6% and 0.8.
The like results for `CN1CCO[C@@H]2CN(c3ccc4c(Cl)cccc4n3)C[C@@H]21` were, in that order, 16% and -1.79.
For `Cc1nc2c(C)cccc2cc1C(=O)N1C[C@@H]2CC[C@H]1CN(C)C2`, the “% Inhibition” value turned out to be 2% and the Z score was -0.39.
For `COc1ccc(N2C(=O)N=C(O)C3(Cc4ccccc4N4CCN(C)CC43)C2=O)cc1` (configuration not stated), in that order: -2% and 0.24.
For `CS(=O)(=O)Cc1noc(CN2C3CCC2c2ccccc23)n1`, in that order: 2% and -0.29.
For the compound `Fc1ccccc1-c1cc(N2C[C@H]3CNC[C@H]3C2)n2nccc2n1`, the “% Inhibition” value is recorded as -7% and the Z score is on record as 1.28.
The like results for `Cc1nsc(C(=O)N[C@@H](C)CF)n1` were, in that order, -10% and 0.88.
The like results for `C1COC(CN2CCOC3CCCCC32)C1` (configuration not stated) were, in that order, -5% and 0.81.
For `CCc1c(C(=O)N[C@@H]2CCOc3c(C)cccc32)cnn1CC(C)C`, in that order: -4% and 0.72.
With `O=C1NC(c2ccc(N3N=N3)cc2)(c2ccc(N3N=N3)cc2)c2ccccc21`, the “% Inhibition” value is 16% and the Z score is reported as -2.2.
Take `CS(=O)(=O)CCC(=O)Nc1ccc(C#N)c(C(F)(F)F)c1`: the “% Inhibition” value is given as -3% and the Z score came out at 0.65.
For `CCC(C)(C)N(C)Cc1cccnc1C`, in that order: 0% and 0.01.
Turning to `Cc1cc(C)c(CNCC(F)F)c(C)c1`, the “% Inhibition” value is on record as 3% and the Z score is given as -0.3.
For the compound `CN(C)Cc1ccccc1-c1ccc2n(c1=O)C[C@H]1C[C@@H]2CN(Cc2ccc(F)cc2)C1`, the “% Inhibition” value came out at 13% and the Z score is listed as -1.56.
Consider `O=C(Cc1ccncc1)N1CC(N2CCOCC2)C1`, for which the “% Inhibition” value is recorded as -1% and the Z score turned out to be 0.12.
On to `Cc1nc(C)c(CN2CCOC3(CCCC3)C2)s1`, for which the “% Inhibition” value is 0% and the Z score was 0.03.
As for `C[C@@H](Cn1cncn1)NCc1ccco1`, the “% Inhibition” value is on record as -5% and the Z score stood at 0.64.
For `O=C1Nc2ccccc2O[C@H]1C(=O)N1CCC2(CC1)OCCO2`, in that order: -16% and 1.91.
Consider `Cc1cc(Br)ccc1Cc1noc([C@H]2C[C@H]3CC[C@@H]2N3)n1`, for which the “% Inhibition” value was determined as 3% and the Z score is listed as -0.55.
Turning to `Cc1cccc2[nH]cc(CCN=C(N(C)C)N(C)C)c12`, the “% Inhibition” value worked out at 0% and the Z score is 0.05.
Take `CC(C)c1nnc(N2CCN(C)C(C)(C)C2)s1`: the “% Inhibition” value is listed as -16% and the Z score was found to be 2.13.
On to `O=C(Cc1cccc(F)c1)N1C[C@@H]2CC[C@H]1CN(Cc1cscn1)C2`, for which the “% Inhibition” value is -8% and the Z score turned out to be 1.28.
The like results for `CC[C@]1(N2CCN(C(=O)COc3cccc(Cl)c3)CC2)CCN(S(C)(=O)=O)C1` were, in that order, -5% and 0.53.
For `NC(=O)c1ccnc(N2CCN3CCCC[C@H]3C2)c1`, in that order: -6% and 0.66.
For `O=C(O)C1CC2CCC1N2Cc1csc(C2CCCCC2)n1` (configuration not stated), in that order: -1% and 0.18.
Turning to `COc1ccc(CNC2CCCC2O)cn1` (configuration not stated), the “% Inhibition” value is -15% and the Z score is given as 1.94.
Consider `CCc1cc2c(N3CCN4CCOC[C@]4(CO)C3)nc(C)nc2s1`, for which the “% Inhibition” value is 2% and the Z score is -0.36.
The like results for `CCN1CC2(CN(Cc3cccnc3)C[C@@H]3C[C@@H](O)CN32)C1` were, in that order, -4% and 0.65.
For `COC(C)(C)C[C@H](C)NC1(c2ccc(C)cc2)CC1`, the “% Inhibition” value is given as 1% and the Z score was -0.09.

By % Inhibition is commonly meant the change of the read-out against control, counted positive when it falls.

Values taken from ChEMBL document CHEMBL4888484, “Replenishing the malaria drug discovery pipeline: Screening and hit evaluation of the MMV Hit Generation Library 1 (HGL1) against asexual blood stage Plasmodium falciparum ,using a nano luciferase reporter read-out” (2022).
